# Results as given in the antibiotic and cytotoxicity screens of Wong et al. (2023).
# The list shows a part of the results.
# Tests used:
# [1] = tested on: HSkMC (human skeletal muscle cells); experiment: cytotoxicity call (relative viability < 0.9); conditions: 10 µM
# [2] = tested on: HepG2; experiment: cytotoxicity call (relative viability < 0.9); conditions: 10 µM
# [3] = tested on: S. aureus RN4220; experiment: growth inhibition call (relative growth <= 0.2); conditions: 50 µM
Structure (SMILES),cytotoxicity call [1],cytotoxicity call [2],growth inhibition call [3]
CC(C)NC(=O)Nc1ccc2c(c1)C(=O)N([C@@H](C)CO)C[C@H](C)[C@H](CN(C)CC1CCCCC1)OCCCC[C@H](C)O2,inactive,inactive,inactive
CCCC#Cc1ccc2c(c1)O[C@H](CN(C)C(=O)c1cnccn1)[C@@H](C)CN([C@H](C)CO)S2(=O)=O,inactive,inactive,inactive
COc1oc(C(=O)NC2CCCCC2)c(-c2ccc(Cl)cc2)c1S(=O)(=O)c1ccc(Cl)cc1,inactive,inactive,inactive
CC(C)NC(=O)Nc1cccc2c1O[C@@H](CN(C)Cc1ccc(C(=O)O)cc1)[C@@H](C)CN([C@@H](C)CO)C2=O,inactive,inactive,inactive
O=C1CCCN1C1CCNCC1,inactive,inactive,inactive
COc1ccc(NC(=O)Nc2cccc3c2O[C@@H](CN(C)CC2CCCCC2)[C@@H](C)CN([C@@H](C)CO)C3=O)cc1,inactive,inactive,inactive
C[C@H]1CN([C@@H](C)CO)C(=O)c2cccc(NC(=O)c3ccc(-c4nccs4)cc3)c2O[C@@H]1CN(C)Cc1ccc(C(F)(F)F)cc1,active,active,inactive
CC(C)(C)c1nc[nH]c1/C=c1\[nH]c(=O)/c(=C/c2ccccc2)[nH]c1=O,inactive,inactive,inactive
C[C@H]1CN([C@@H](C)CO)C(=O)c2cc(NC(=O)CCC(F)(F)F)ccc2O[C@@H]1CN(C)Cc1ccc(Oc2ccccc2)cc1,inactive,inactive,inactive
C[C@H](CO)N1C[C@H](C)[C@H](CN(C)S(=O)(=O)c2cn(C)cn2)Oc2c(NC(=O)c3cnccn3)cccc2C1=O,inactive,inactive,inactive
C[C@@H]1CN([C@@H](C)CO)C(=O)c2cc(NC(=O)C3CCCCC3)ccc2O[C@@H]1CN(C)Cc1ccc(C(=O)Nc2ccccc2N)cc1,inactive,inactive,inactive
CC[C@H]1OC(=O)[C@H](C)[C@@H](O[C@H]2C[C@@](C)(OC)[C@@H](O)[C@H](C)O2)[C@@H](C)[C@@H](O[C@H]2O[C@H](C)C[C@H](N(C)C)[C@H]2O)[C@](C)(O)C[C@@H](C)C(=O)[C@H](C)[C@@H](O)[C@]1(C)O,inactive,inactive,active
C[C@@H]1CN([C@@H](C)CO)C(=O)c2cccc(NC(=O)c3ccc(-c4nccs4)cc3)c2O[C@@H]1CN(C)Cc1ccc2c(c1)OCO2,inactive,inactive,inactive
Cc1ccc(S(=O)(=O)N2C[C@H](O)COC[C@@H]3O[C@@H](CC(=O)N4CCc5ccccc5C4)CC[C@H]32)cc1,inactive,inactive,inactive
COc1cccn(CC(=O)N2CCO[C@@H](CCN)C2)c1=O,inactive,inactive,inactive
C[C@@H]1CN([C@H](C)CO)C(=O)c2cc(NC(=O)Nc3cccc4ccccc34)ccc2O[C@@H]1CN(C)S(=O)(=O)c1ccccc1,inactive,inactive,inactive
C[C@@H]1CN([C@H](C)CO)C(=O)c2cc(NC(=O)Nc3cccc4ccccc34)ccc2O[C@H]1CN(C)S(=O)(=O)c1ccc(F)cc1,inactive,inactive,inactive
COc1ccc(C(=O)CO)cc1,inactive,inactive,inactive
CN1C=C(C(=O)OCCS(C)(=O)=O)C(C(=O)OCCS(C)(=O)=O)=CC(c2ccc(CO)cc2)=C[C@@H]1C1CC1,inactive,inactive,inactive

Structure (SMILES),cytotoxicity call [1],cytotoxicity call [2],growth inhibition call [3]
COc1ccc(NC(=O)N(C)C[C@H]2Oc3ccc(NC(=O)Cn4cnnn4)cc3CC(=O)N([C@H](C)CO)C[C@@H]2C)cc1,inactive,inactive,inactive
C[C@@H]1CN([C@H](C)CO)C(=O)c2cc(NC(=O)Nc3ccc(F)cc3)ccc2O[C@@H]1CN(C)S(=O)(=O)c1cn(C)cn1,inactive,inactive,inactive
C[C@H](CO)N1C[C@H](C)[C@H](CN(C)C(=O)c2ccncc2)OCCCC[C@H](C)Oc2ccc(NS(C)(=O)=O)cc2C1=O,inactive,inactive,inactive
Cc1ccc(S(=O)(=O)N(C)C[C@@H]2OCCCC[C@H](C)Oc3ccc(NS(=O)(=O)c4ccc(Cl)cc4)cc3C(=O)N([C@H](C)CO)C[C@H]2C)cc1,inactive,active,inactive
C[C@@H]1CN([C@@H](C)CO)C(=O)Cc2cc(NC(=O)C3CCCCC3)ccc2O[C@H]1CN(C)S(C)(=O)=O,inactive,inactive,inactive
C[C@H](CO)N1C[C@H](C)[C@@H](CN(C)C(=O)Nc2ccccc2)Oc2c(NS(=O)(=O)c3cn(C)cn3)cccc2C1=O,inactive,inactive,inactive
O=[N+]([O-])c1ccc(NCCO)c(OCCO)c1,inactive,inactive,inactive
CN(C)CC(=O)N[C@H]1CC[C@H](CCn2cc(CN(C)C)nn2)O[C@H]1CO,inactive,inactive,inactive
Cc1cc(C(=O)Nc2cccc3c2O[C@H](CN(C)Cc2ccc(Oc4ccccc4)cc2)[C@@H](C)CN([C@H](C)CO)C3=O)n(C)n1,inactive,active,inactive
C[C@@H]1CN([C@@H](C)CO)C(=O)Cc2cc(NC(=O)Nc3ccc(C(F)(F)F)cc3)ccc2O[C@H]1CN(C)C(=O)Nc1ccc2c(c1)OCO2,inactive,inactive,inactive
Cc1ccc(S(=O)(=O)N(C)C[C@H]2Oc3ncc(Br)cc3C(=O)N([C@H](C)CO)C[C@H]2C)cc1,inactive,inactive,inactive
C[C@@H]1CN([C@H](C)CO)C(=O)c2cc(NS(=O)(=O)c3ccc(F)cc3)ccc2O[C@@H]1CN(C)S(C)(=O)=O,inactive,inactive,inactive
C[C@@H]1CN([C@@H](C)CO)C(=O)Cc2cc(NC(=O)CCCN(C)C)ccc2O[C@H]1CN(C)C(=O)Nc1ccc(F)cc1,inactive,inactive,inactive
COc1ccccc1S(=O)(=O)N(C)C[C@H]1OCc2cn(nn2)CCCC(=O)N([C@H](C)CO)C[C@H]1C,inactive,inactive,inactive
C[C@@H]1CN([C@@H](C)CO)C(=O)c2cccc(NC(=O)c3ccc(-c4nccs4)cc3)c2O[C@@H]1CN(C)C(=O)Nc1ccc(C(F)(F)F)cc1,inactive,active,inactive
C[C@@H]1CN([C@H](C)CO)C(=O)c2cc(NC(=O)CCC(F)(F)F)ccc2O[C@@H]1CN(C)C(=O)Nc1ccc(C(F)(F)F)cc1,inactive,inactive,inactive
CCn1nnc2c(SCC(N)=O)ncnc21,inactive,inactive,inactive
CCN(CC)/[N+]([O-])=N/OC,inactive,inactive,inactive
Cc1ccc(S(=O)(=O)Nc2ccc3c(c2)C(=O)N([C@@H](C)CO)C[C@@H](C)[C@H](CN(C)C(=O)NC(C)C)O3)cc1,inactive,inactive,inactive

Structure (SMILES),cytotoxicity call [1],cytotoxicity call [2],growth inhibition call [3]
C[C@@H]1CN([C@H](C)CO)C(=O)c2cc(C#CCN(C)C)cnc2O[C@H]1CN(C)S(=O)(=O)c1ccccc1,inactive,inactive,inactive
C[C@@H]1CN([C@@H](C)CO)C(=O)c2cc(C#CC3CCCCC3)cnc2O[C@@H]1CN(C)C(=O)c1ccncc1,inactive,inactive,inactive
O=C(NCCCN1CCOCC1)[C@H]1N[C@H]2c3ccc(C4=CCCCC4)c(=O)n3C[C@H]2[C@@H]1CO,inactive,inactive,inactive
C[C@@H]1CN([C@@H](C)CO)S(=O)(=O)c2ccc(C#C[C@@H](C)O)cc2O[C@H]1CN(C)C(=O)CN(C)C,inactive,inactive,inactive
C[C@@H]1CN([C@H](C)CO)C(=O)c2cc(NC(=O)Nc3ccc(F)cc3)ccc2O[C@@H](C)CCCCO[C@@H]1CN(C)Cc1ccc(C(=O)O)cc1,inactive,inactive,inactive
CCNC(=O)C[C@@H]1CC[C@H]2[C@H](COc3ccc(NS(=O)(=O)c4ccccc4C)cc3C(=O)N2C)O1,inactive,inactive,inactive
CO[C@@H]1CN(C)C(=O)c2ccc(NC(=O)Nc3ccccc3)cc2OC[C@H](C)N(C(=O)CN(C)C)C[C@H]1C,inactive,inactive,inactive
Cc1cc(N)c2ccccc2[n+]1CCCCCCCCCC[n+]1c(C)cc(N)c2ccccc21.[Cl-].[Cl-],inactive,active,inactive
C[C@@H]1CN([C@H](C)CO)C(=O)c2c(c3ccccc3n2C)-c2ccccc2CO[C@@H]1CN(C)Cc1ccc(F)cc1,inactive,inactive,inactive
CO[C@@H]1CN(C)C(=O)c2ccc(NS(=O)(=O)CC(F)(F)F)cc2OC[C@H](C)N(Cc2cccnc2)C[C@H]1C,inactive,inactive,inactive
Cc1noc(C)c1S(=O)(=O)N(C)C[C@H]1Oc2ccc(NC(=O)Cc3cn(C)c4ccccc34)cc2CC(=O)N([C@H](C)CO)C[C@H]1C,inactive,inactive,inactive
COc1ccccc1N1CCN(CCCNc2cc(=O)n(C)c(=O)n2C)CC1.Cl,inactive,inactive,inactive
Cc1ccc(S(=O)(=O)N(C)C[C@H]2Oc3ccc(NC(=O)CCN4CCOCC4)cc3C(=O)N([C@@H](C)CO)C[C@H]2C)cc1,inactive,inactive,inactive
Cc1ccc(S(=O)(=O)N(C)C[C@@H]2OCCCC[C@H](C)Oc3ccc(NC(=O)C4CCCCC4)cc3C(=O)N([C@@H](C)CO)C[C@H]2C)cc1,inactive,inactive,inactive
CC(=O)N(O)CCCCCNC(=O)CCC(=O)N(O)CCCCCNC(=O)CCC(=O)N(O)CCCCCN.CS(=O)(=O)O,inactive,active,inactive
COc1ccc2c(c1)OCC(Cc1ccc(O)c(OC)c1)C2=O (stereo not drawn),inactive,inactive,inactive
COc1ccc(S(=O)(=O)N(C)C[C@@H]2Oc3ccc(NC(=O)Nc4ccc(Cl)c(Cl)c4)cc3CC(=O)N([C@@H](C)CO)C[C@@H]2C)cc1Cl,active,active,inactive
CC(=O)/N=c1\sc(S(N)(=O)=O)nn1C,inactive,inactive,inactive
